About 14,000 (4.5%) of roughly 310,000 compounds showed an effect of 50% or more. Effects have a minus sign here. The list shows a part of the results.
target: human ether-à-go-go-related gene (hERG) potassium channel (human, UniProt Q12809); assay: primary screen, population patch clamp on CHO cells stably expressing hERG
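Also: peak tail current of the secondary pulse compared with the same well before compound.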

Chain of human ether-à-go-go-related gene (hERG) potassium channel (Q12809 whole entry, looked up): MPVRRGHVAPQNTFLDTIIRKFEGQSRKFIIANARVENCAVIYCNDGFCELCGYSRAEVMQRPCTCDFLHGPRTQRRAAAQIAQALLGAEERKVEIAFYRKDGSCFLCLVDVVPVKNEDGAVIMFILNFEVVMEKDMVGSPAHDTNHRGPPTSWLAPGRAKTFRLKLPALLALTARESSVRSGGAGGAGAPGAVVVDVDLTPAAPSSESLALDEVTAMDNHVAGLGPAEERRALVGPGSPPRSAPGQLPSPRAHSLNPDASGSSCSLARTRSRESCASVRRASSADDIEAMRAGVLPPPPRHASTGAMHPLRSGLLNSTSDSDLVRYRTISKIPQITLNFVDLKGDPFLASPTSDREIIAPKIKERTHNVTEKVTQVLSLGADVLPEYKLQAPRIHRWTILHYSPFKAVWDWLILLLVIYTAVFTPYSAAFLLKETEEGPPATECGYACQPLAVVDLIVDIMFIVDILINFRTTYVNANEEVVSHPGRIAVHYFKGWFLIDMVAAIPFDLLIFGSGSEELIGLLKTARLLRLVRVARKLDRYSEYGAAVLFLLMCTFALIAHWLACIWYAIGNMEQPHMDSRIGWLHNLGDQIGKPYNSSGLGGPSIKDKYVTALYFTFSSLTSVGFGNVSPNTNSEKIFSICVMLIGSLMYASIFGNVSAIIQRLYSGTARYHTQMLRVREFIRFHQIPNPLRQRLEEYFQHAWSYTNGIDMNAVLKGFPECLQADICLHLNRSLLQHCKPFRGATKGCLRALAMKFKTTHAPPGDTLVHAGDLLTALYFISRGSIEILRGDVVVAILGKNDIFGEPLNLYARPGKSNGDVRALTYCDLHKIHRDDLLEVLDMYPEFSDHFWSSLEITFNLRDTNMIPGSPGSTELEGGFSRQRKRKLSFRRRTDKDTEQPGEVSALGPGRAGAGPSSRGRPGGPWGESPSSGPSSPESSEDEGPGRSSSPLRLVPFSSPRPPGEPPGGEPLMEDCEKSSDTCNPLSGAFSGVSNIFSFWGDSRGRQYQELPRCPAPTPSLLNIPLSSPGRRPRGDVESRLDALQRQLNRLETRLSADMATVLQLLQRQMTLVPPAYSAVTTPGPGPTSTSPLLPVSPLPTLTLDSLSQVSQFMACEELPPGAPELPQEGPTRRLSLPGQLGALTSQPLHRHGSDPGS

| Compound | hERG current change (%, negative = inhibition) at 10uM [%] |
| --- | --- |
| Cc1nc2ccccn2c1-c1nnco1 | 5.42 |
| CCNC(=S)N1CCC(Cc2ccccc2)CC1 | 9.93 |
| CCOC(=O)/C(C#N)=C(C)/C=C1\Sc2ccccc2N1CC | -15.7 |
| CN1CCc2c(sc3c2c(=O)n(-c2ccccc2)c2nncn32)C1 | 4.92 |
| O=C(CSc1n[nH]c(-c2cccs2)n1)NCc1ccc2c(c1)OCO2 | -13.3 |
| O=C(Cc1ccccc1)NC1(O)C(=O)c2ccccc2C1=O | 9.43 |
| c1ccc2c(c1)ncn2-c1ccc(-c2ccnc3ncnn23)cc1 | -68 |
| COc1ccc(NC(=O)/C=C/C(=O)O)c([N+](=O)[O-])c1 | -10.9 |
| CCC(C)(C)NC(=O)CN(Cc1ccc(F)cc1)C(=O)CCC(=O)Nc1ccccn1 | -12.8 |
| CCOc1ccccc1C(=O)NCC(=O)NCc1ccc(S(=O)(=O)N2CCOCC2)cc1 | -3.71 |
| O=C(N/N=C/c1cc(Br)c(O)c(Br)c1)C1CC1 | 0.456 |
| Cc1cc(C)cc(NS(=O)(=O)c2ccc(F)cc2)c1 | 2.69 |
| Cc1nn(Cc2c(Cl)cccc2Cl)c(C)c1NC(=O)c1cc(C(C)C)on1 | 12.7 |
| CN=C1SC(CC(=O)Nc2ccccc2F)C(=O)N1C (centres unmarked) | 19.3 |
| Cc1ccc(S(=O)(=O)N(C)CC(=O)N2CCN(Cc3ccc4c(c3)OCO4)CC2)cc1 | -66.6 |
| CSc1ccccc1OCc1cc(C(=O)N2CCc3sccc3C2)no1 | 7.47 |
| O=C(CSc1ccc(/C=N/NC(=O)c2cccc(F)c2)o1)Nc1ccccc1 | 4.96 |
| CCOCCCNC(=O)c1ccc2nc(-c3ccc(OC)c(OC)c3)c(-c3ccc(OC)c(OC)c3)nc2c1 | 6.99 |
| O=C(Nc1cccnc1)c1ccc(Br)s1 | -2.68 |
| CC1(C)COC(Nc2cccc(Cl)c2)=N1 | 14.7 |
| CCCOc1ccc(C(=O)NC(=S)Nc2nc(C)c(C(=O)N(C)C)s2)cc1 | 0.536 |
| Cn1c(CC(=O)NNC(=O)c2ccc(F)cc2F)nc2ccccc21 | -7.56 |

| Compound | hERG current change (%, negative = inhibition) at 10uM [%] |
| --- | --- |
| Cc1cc(C)cc(N2C(=O)CC(c3ccccc3)CC2=O)c1 | 5.14 |
| CNc1cc([N+](=O)[O-])ccc1OCc1ccccc1 | 1.03 |
| COc1cccc(OCC(=O)O/N=C(\N)c2ccncc2)c1 | 18.9 |
| Cc1ccc(NC(=S)NC2CC3CCC(C2)N3Cc2ccco2)cc1C (centres unmarked) | -36.1 |
| COc1ccccc1C(=O)Nc1ccnn1C1CCN(Cc2csc(C(C)=O)c2)CC1 | -72.9 |
| C/C(=C\C(=O)Nc1nccs1)c1ccccc1 | 0.853 |
| CCOCCCn1cnc2c(c1=O)c1nc3ccccc3nc1n2-c1ccccc1 | -30.6 |
| COC(=O)CCC(=O)N1CCCC(N2CCN(c3ccc(OC)cc3)CC2)C1 (centres unmarked) | -1.47 |
| COc1ccc(C(=O)CC(=O)C(=O)Nc2cccc(F)c2)cc1 | 4.74 |
| CC(SCc1ccccc1)C(=O)Nc1ccc2c(c1)OCO2 (centres unmarked) | -7.49 |
| Cc1cc2cc(CN(CCCN3CCOCC3)C(=O)NC3CCCCC3)c(=O)[nH]c2cc1C | -37.8 |
| Cc1nnc(NC(=O)CSc2nnc(-c3ccoc3C)n2CC(C)C)s1 | 5.79 |
| Clc1ccc(/C(Cc2nc3ccccc3[nH]2)=N\Nc2ccccc2)cc1 | -0.238 |
| c1ccc(-c2cccc(-c3ccccn3)n2)nc1 | 0.0807 |
| Cc1ccccc1OCCCC(=O)Nc1ccc(Br)cc1 | 5.24 |
| Cc1ccccc1-n1ncc2c1CC(C)(C)CC2NC(=O)CN1CCCC1=O (centres unmarked) | 9.7 |
| CCOC(=O)Cc1csc2nc(-c3ccccc3)nn12 | 16.8 |
| N#C/C(=C\c1ccncc1)c1nc2ccccc2c(=O)[nH]1 | 8.11 |
| CCNc1nc(OCCNC(C)=O)nc(N(C)C)n1 | 22 |
| O=[N+]([O-])C(=C1NCCN1)C(Cl)=C(Cl)Cl | 25.7 |
| CCCCOc1ccc(C(O)C(CN2CCOCC2)c2ccccc2)cc1.Cl (centres unmarked) | -0.996 |
| O=C(NCC(c1ccco1)N1CCc2ccccc2C1)C(=O)Nc1ccccc1 (centres unmarked) | 4.12 |

Reference: article PMC4336329 (PLoS ONE, 2015)
